Values belong to the binder of their own block, whether it stands above or below them.
Assays:
[1] = molecular target: T1, recombinant human VEGFR2 Fc Chimera (R&D Systems, 357-KD-050) (human, UniProt P35968 20-764); experiment: bridging ELISA: coated VEGFR2 Fc, titrated BPC1821, detection with biotinylated B7-1 Fc and ExtrAvidin peroxidase; x axis is dilution factor
T1 construct: Bought reagent; also called VEGF receptor; Fc part of the bought chimera not given

[2] = molecular target: T2, Recombinant human B7-1 Fc Chimera (RnD Systems, 140-B1-100), biotinylated (human, UniProt P33681 35-242, biotinylated (ECL biotinylation module, GE Healthcare, at a quarter of the kit recommended level)); experiment: bridging ELISA: coated VEGFR2 Fc, titrated BPC1821, detection with biotinylated B7-1 Fc (1 ug/mL) and ExtrAvidin peroxidase; x axis is dilution factor
T2 construct: Bought reagent; also called biotinylated B7-1; Fc part of the bought chimera not given
T2 sequence (looked up): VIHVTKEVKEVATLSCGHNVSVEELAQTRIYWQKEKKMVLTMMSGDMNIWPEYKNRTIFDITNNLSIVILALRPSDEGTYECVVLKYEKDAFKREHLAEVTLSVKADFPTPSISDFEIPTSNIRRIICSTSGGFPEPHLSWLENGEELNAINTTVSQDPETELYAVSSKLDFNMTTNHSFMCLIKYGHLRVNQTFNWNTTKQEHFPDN

[3] = molecular target: T3, human VEGF165 (human, UniProt P15692-4 27-191); experiment: bridging ELISA: coated human VEGF165, titrated BPC1824, detection with biotinylated B7-1 Fc and ExtrAvidin peroxidase
T3 construct: also called VEGF (R&D Systems, Cat No: 293-VE-050); human VEGF165 (in-house material)
T3 sequence (looked up): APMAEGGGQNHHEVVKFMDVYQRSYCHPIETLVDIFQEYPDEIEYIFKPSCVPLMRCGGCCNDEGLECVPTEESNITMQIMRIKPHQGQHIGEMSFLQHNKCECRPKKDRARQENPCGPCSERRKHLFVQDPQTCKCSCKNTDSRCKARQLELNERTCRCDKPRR

T1 sequence (P35968 20-764, change not shown): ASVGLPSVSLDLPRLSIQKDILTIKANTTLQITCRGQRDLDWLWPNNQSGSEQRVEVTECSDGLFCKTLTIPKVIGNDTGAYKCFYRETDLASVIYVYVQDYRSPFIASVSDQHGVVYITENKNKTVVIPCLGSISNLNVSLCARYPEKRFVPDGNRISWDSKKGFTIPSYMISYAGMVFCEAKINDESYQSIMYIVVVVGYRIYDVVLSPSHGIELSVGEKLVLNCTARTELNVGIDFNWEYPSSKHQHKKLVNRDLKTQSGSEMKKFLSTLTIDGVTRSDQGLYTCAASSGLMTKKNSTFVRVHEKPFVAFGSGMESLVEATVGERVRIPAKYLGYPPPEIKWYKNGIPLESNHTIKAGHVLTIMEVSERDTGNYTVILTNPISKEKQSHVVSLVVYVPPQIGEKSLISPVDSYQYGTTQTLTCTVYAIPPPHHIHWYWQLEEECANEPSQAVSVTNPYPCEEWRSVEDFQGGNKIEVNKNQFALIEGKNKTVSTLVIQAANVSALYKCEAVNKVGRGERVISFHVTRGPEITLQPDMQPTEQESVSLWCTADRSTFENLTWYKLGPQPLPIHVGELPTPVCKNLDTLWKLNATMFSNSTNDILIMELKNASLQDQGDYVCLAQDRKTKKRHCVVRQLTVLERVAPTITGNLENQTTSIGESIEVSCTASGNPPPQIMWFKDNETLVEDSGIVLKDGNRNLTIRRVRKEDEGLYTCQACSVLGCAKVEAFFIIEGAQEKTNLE

binding result [1]: binds
binding result [2]: binds
B1: BPC1821 (CTLA4-Ig fused to anti-VEGFR2 adnectin CT01 via a GS linker) (Fc fusion)
chain: [sequence of about 350 residues with a human IgG1 Fc not given]GSEVVAATPTSLLISWRHPHFPTRYYRITYGETGGNSPVQEFTVPLQPPTATISGLKPGVDYTITVYAVTDGRNGRLLSIPISINYRT
notes: also called bispecific BPC1821

binding result [3]: no binding
B2: BPC1824 (CTLA4-Ig-anti-IL-13 dAb fusion) (Fc fusion)
chain: [sequence of about 350 residues with a human IgG1 Fc not given]GSGVQLLESGGGLVQPGGSLRLSCAASGFVFPWYDMGWVRQAPGKGLEWVSSIDWHGKITYYADSVKGRFTISRDNSKNTLYLQMNSLRAEDTAVYYCATAEDEPGYDYWGQGTLVTVSS
notes: Negative control of the VEGF/B7-1 bridging ELISA

— patent US20120076787A1 (published 2012)
